Data published in US20230416383A1 (INNATE PHARMA, published 2023).

Tests used:
[1] = target: T1, recombinant human CD123 (ACRO Biosystems, catalog no. ILA-H52H6) (human, UniProt P26951 19-305); assay: SPR, mean +/- SD (n = 3)
T1 construct: Bought protein; also called hCD123; CD123 (human molecules)
T1 sequence: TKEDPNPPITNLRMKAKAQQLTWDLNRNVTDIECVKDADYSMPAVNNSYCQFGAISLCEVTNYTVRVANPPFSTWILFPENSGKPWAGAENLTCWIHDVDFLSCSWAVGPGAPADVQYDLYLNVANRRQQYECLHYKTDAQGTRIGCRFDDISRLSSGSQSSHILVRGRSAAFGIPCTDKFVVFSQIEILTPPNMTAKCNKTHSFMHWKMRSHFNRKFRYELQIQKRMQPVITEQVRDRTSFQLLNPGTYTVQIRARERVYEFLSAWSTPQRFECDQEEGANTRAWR

[2] = target: T2, recombinant human NKp46 extracellular domain with C-terminal 6xHis tag (human, UniProt O76036 22-255); assay: SPR, mean +/- SD (n = 3)
T2 construct: Made in CHO cells (Innate Pharma), purified on Ni-NTA and by size exclusion; analyte in SPR; also called hNKp46; Nkp46 (human molecules)
T2 sequence: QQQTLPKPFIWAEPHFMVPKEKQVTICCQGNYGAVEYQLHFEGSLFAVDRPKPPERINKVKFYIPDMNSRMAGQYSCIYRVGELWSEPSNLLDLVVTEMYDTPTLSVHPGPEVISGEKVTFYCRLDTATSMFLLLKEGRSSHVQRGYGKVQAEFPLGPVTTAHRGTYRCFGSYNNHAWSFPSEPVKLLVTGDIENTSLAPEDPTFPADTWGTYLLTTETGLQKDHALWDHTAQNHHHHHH

[3] = target: T1, recombinant human CD123 (ACRO …); assay: SPR (Biacore T200), antibody captured by anti-human Fc, CD123 as analyte, 1:1 model
[4] = target: T3, human CD123 on AML cells and on normal blood cells (MOLM-13, THP-1, primary AML blasts, basophils) (human, UniProt P26951 19-378); assay: cell-based or functional assay
T3 sequence (looked up): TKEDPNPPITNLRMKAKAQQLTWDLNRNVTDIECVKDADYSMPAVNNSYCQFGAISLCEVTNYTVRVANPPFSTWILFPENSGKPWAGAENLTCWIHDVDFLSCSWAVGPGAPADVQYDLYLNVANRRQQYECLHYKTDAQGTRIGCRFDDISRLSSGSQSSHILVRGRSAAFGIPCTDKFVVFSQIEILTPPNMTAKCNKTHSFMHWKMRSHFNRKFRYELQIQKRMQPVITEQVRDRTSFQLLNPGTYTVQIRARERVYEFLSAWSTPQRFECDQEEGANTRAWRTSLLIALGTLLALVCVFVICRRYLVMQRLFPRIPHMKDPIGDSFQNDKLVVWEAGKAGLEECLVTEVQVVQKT

[5] = target: T4, recombinant Cynomolgus NKp46-FlagM2 extracellular domain (cynomolgus monkey, UniProt Q95JB9 17-254); assay: SPR (Biacore T200), antibody captured by anti-human Fc, NKp46 as analyte, 1:1 model
T4 construct: also called CynoNKp46; NKp46 (cynomolgus molecules)
T4 sequence: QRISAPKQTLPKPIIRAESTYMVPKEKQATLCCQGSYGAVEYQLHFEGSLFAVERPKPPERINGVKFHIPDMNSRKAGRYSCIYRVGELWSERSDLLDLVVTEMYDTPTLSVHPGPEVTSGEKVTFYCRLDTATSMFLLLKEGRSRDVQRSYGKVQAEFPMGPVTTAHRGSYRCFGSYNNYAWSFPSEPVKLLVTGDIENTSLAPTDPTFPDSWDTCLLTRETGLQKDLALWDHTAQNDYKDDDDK

[6] = target: T2, recombinant human NKp46 extracellular …; assay: as above

B1: NKp46-CD123_F25 binding protein (bispecific antibody, human IgG1, kappa)
chain 1: DIVMTQSPDSLAVSLGERATINCESSQSLLSSGNQKNYLTWYQQKPGQPPKPLIYWASTRESGVPDRFSGSGSGTDFTLTISSLQAEDVAVYYCQNDYSYPYTFGQGTKLEIKRTVAAPSVFIFPPSDEQLKSGTASVVCLLNNFYPREAKVQWKVDNALQSGNSQESVTEQDSKDSTYSLSSTLTLSKADYEKHKVYACEVTHQGLSSPVTKSFNRGE[omitted - human IgG1 Fc]
chain 2: EVQLVQSGAEVKKPGESLKISCKGSGYSFTDYYMKWARQMPGKGLEWMGDIIPSSGATFYNQKFKGQVTISADKSISTTYLQWSSLKASDTAMYYCARSHLLRASWFAYWGQGTMVTVSSASTKGPSVFPLAPSSKSTSGGTAALGCLVKDYFPEPVTVSWNSGALTSGVHTFPAVLQSSGLYSLSSVVTVPSSSLGTQTYICNVNHKPSNTKVDKRV[omitted - human IgG1 Fc]TGSQVQLVQSGAEVKKPGSSVKVSCKASGYTFSDYVINWVRQAPGQGLEWMGEIYPGSGTNYYNEKFKAKATITADKSTSTAYMELSSLRSEDTAVYYCARRGRYGLYAMDYWGQGTTVTVSSASTKGPSVFPLAPSSKSTSGGTAALGCLVKDYFPEPVTVSWNSGALTSGVHTFPAVLQSSGLYSLSSVVTVPSSSLGTQTYICNVNHKPSNTKVDKRVEPKSCDKTHS
chain 3: DIQMTQSPSSLSASVGDRVTITCRASQDISNYLNWYQQKPGKAPKLLIYYTSRLHSGVPSRFSGSGSGTDFTFTISSLQPEDIATYFCQQGNTRPWTFGGGTKVEIKRTVAAPSVFIFPPSDEQLKSGTASVVCLLNNFYPREAKVQWKVDNALQSGNSQESVTEQDSKDSTYSLSSTLTLSKADYEKHKVYACEVTHQGLSSPVTKSFNRGEC
modifications: N-linked glycosylation at N297 (EU numbering) of the CH2 domain
notes: also called CD123-NKCE; CD123-NKp46_F25
B1 gave a Kd [1] of 0.4 nM, a Kd [2] of 16.6 nM and a Kd [3] of 0.24 nM. For the same binder, the koff [3] was 2.85e-05 s⁻¹, the kon [3] was 119000 M⁻¹ s⁻¹ and the “geometric mean EC50 of killing of MOLM-13 cells by healthy donor NK cells” value [4] was 0.0042 nM. It also gave a Kd [5] of 67.9 nM, a koff [5] of 0.00247 s⁻¹ and a kon [5] of 36400 M⁻¹ s⁻¹. It also gave a Kd [6] of 17.5 nM, a koff [6] of 0.000943 s⁻¹ and a kon [6] of 53800 M⁻¹ s⁻¹.
